# Among all 390,000 compounds or so, about 17,000 (4.4%) were called active. The shares of active, inactive and inconclusive entries below differ from those in the screen. The call rests on the fitted dose curve; in most records, active means well fitted inhibition curve with a large enough effect; inconclusive means small, poorly fitted or top-dose-only effect; inactive means no such curve, though single readings can be large or run the other way. A potency beside an inconclusive call is a rough fit, not a confirmed value.
# Target: Lysine-specific demethylase 4A (Homo sapiens) (UniProt O75164)
# UniProt O75164, sequence (O75164 whole entry, looked up, the tested form may be a part): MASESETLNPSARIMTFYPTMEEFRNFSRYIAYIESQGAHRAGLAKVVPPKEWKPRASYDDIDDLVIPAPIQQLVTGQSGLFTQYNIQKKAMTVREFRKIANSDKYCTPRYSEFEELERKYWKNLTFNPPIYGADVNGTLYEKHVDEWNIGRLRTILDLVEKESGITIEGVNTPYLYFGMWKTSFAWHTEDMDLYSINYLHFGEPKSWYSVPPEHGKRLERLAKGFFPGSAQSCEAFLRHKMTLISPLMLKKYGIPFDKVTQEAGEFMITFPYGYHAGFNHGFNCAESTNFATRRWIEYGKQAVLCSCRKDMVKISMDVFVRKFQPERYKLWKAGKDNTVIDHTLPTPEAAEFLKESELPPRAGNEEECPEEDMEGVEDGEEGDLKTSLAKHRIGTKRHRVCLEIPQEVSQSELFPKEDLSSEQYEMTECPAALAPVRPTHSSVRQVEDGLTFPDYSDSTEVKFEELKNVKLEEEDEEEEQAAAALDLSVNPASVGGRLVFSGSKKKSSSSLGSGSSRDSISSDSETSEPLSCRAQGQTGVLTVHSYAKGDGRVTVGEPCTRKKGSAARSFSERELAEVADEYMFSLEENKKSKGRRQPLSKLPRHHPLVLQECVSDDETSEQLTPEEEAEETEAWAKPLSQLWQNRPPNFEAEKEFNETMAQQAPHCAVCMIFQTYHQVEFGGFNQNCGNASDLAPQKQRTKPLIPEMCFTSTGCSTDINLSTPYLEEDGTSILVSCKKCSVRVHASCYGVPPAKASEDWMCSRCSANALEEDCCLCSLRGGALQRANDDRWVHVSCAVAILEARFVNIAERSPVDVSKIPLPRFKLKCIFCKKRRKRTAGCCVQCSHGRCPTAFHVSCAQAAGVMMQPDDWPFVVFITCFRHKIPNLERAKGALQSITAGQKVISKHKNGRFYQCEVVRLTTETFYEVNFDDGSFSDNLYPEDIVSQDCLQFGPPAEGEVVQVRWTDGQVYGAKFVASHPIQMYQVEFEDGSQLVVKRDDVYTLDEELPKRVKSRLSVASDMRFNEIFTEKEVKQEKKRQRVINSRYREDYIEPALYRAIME
# Experiment: qHTS Assay for Inhibitors of JMJD2A-Tudor Domain; further: nearly all actives have a fitted effect of over 50% in size
# Conditions: AlphaScreen JMJD2A-Tudor / H3K4me3 peptide binding; activity change, negative = inhibition: at 114 µM (top of the series)
# On the % scale 0 is the no-effect control and ±100 the full control effect; potency means the concentration at half of the fitted maximal effect; tags describe the fitted curve by direction and shape.
Compound,Potency,"activity change, negative = inhibition"
Cc1ccc(-c2nc(CN3CCCCC3c3cccc(F)c3)c(C)o2)o1 (configuration not stated),"inconclusive: 56.2 µM [inhibitor, partial curve]",
CCCN(CCC)Cc1c(C(=O)N/N=C/c2ccncc2)nnn1-c1nonc1N,,inactive: -3.68%
COc1ccc(S(=O)(=O)NC(C)(C)CO)cc1-c1nnc2c3ccccc3c(C)nn12,,inactive: -12%
Cc1nc2ccccc2n1CCc1nc2c3ccccc3nc(=S)n2[nH]1,active: 63.1 µM,
COc1ccc(/C=C2\CCc3ccccc3C2=O)cc1CN1CCOCC1,"inconclusive: 50.1 µM [inhibitor, partial curve]",
Cc1nn(-c2cccc(Cl)c2)c2nc(-c3cccnc3)cc(C(F)(F)F)c12,,inactive: 13.8%
CN1CCc2c(sc3c2C(=O)NC(/C=C\c2ccccc2)N3)C1 (configuration not stated),"inconclusive: 50.1 µM [inhibitor, partial curve]",
O=C(O)CSc1c2c(nc3cc(C(=O)Nc4ccc(F)c(Cl)c4)ccc13)CCCC2,,inactive: -31.6%
O=C(O)c1ccc(N2C(=O)/C(=C/c3ccc(-c4ccc([N+](=O)[O-])cc4)o3)C=C2c2ccccc2)cc1,active: 7.94 µM,
CCOC(=O)c1c(/N=C/C2C(=O)CCCC2=O)sc2c1CCCC2,,inactive: 0.704%
Cc1ccc(-n2c(Cc3ccccc3)n[nH]c2=S)c(C)c1,active: 17.8 µM,
COCCCNC(=O)COc1ccc(S(=O)(=O)NCc2ccccc2)cc1Cl,,inactive: -8.78%
COc1cccc(CNc2sc3c(c2C(=O)Nc2ccc(OC)cc2OC)CCC3)c1,"inconclusive: 50.1 µM [inhibitor, partial curve]",
Cc1ccc(C(=O)N2CCN(c3ccc([N+](=O)[O-])cc3-n3cccc3)CC2)cc1,"inconclusive: 15.8 µM [inhibitor, full curve]",
CSc1nnc(NC(=O)c2cc(=O)c3cc(C)cc(C)c3o2)s1,,inactive: -24%
Cc1ccc(-n2nnnc2CSc2nnc(-c3ccc(O)cc3)o2)cc1,,inactive: 1.4%
O=C(COC(=O)C1CCN(S(=O)(=O)c2ccc3c(c2)OCCO3)CC1)Nc1cc(C(F)(F)F)ccc1Cl,,inactive: -7.43%
O=C(COC(=O)CNC(=O)c1cccc([N+](=O)[O-])c1)Nc1cccc(S(=O)(=O)N2CCCCC2)c1,"inconclusive: 70.8 µM [inhibitor, single point]",
COC(=O)c1ccc(CNC(=O)COC(=O)CCN2C(=O)C3CC=CCC3C2=O)cc1 (configuration not stated),,inactive: -11.9%

Compound,Potency,"activity change, negative = inhibition"
CCCCNc1c(-c2cccc(-c3cc(C(C)=O)cs3)c2)nc2cc(C)ccn12,"inconclusive: 39.8 µM [inhibitor, partial curve]",
Cc1ccc(-c2nnc(-c3cccc(Br)c3)o2)cc1,active: 50.1 µM,
C[C@@H](C(=O)OCC(=O)NCCc1ccc(S(N)(=O)=O)cc1)N1C(=O)C2CCCCC2C1=O (some centres not stated),,inactive: 0.685%
COc1ccc(C)cc1NC1(c2ccccc2)C(=O)c2ccccc2C1=O,active: 28.2 µM,
CN(C)c1ccc(NC(=O)CC(NCc2cccnc2)C(=O)O)cc1 (configuration not stated),,inactive: -1.04%
Oc1c(C(c2ccccc2Cl)N2CCCC2)ccc2cccnc12 (configuration not stated),active: 20 µM,
CC(C)(C)SC(C(=O)N1CCOCC1)c1ccc(Br)cc1 (configuration not stated),"inconclusive: 7.94 µM [inhibitor, partial curve]",
COc1cccc(/C=C/C(=C2/C(=O)N(c3ccccc3)N=C2C)c2ccc(C)cc2)c1OC,"inconclusive: 3.55 µM [inhibitor, full curve]",
O=[N+]([O-])c1ccc(O)c(C=NNc2ccc(S(=O)(=O)O)cc2)c1,active: 79.4 µM,
Cc1cc(=O)n2[nH]c(=O)c(N=Nc3ccccc3)c2[nH]1,"inconclusive: 28.2 µM [inhibitor, partial curve]",
CCCCNCCOCCOc1ccc(F)cc1,active: 5.01 µM,
CN(C)S(=O)(=O)c1cccc(NC(=S)N/N=C/c2cc(Br)ccc2O)c1,active: 28.2 µM,
Cc1ccc(C)c(NC(=O)CN(C)C(=O)c2cccc(-n3cccc3)c2)c1,active: 15.8 µM,
CCN1/C(=C/c2ccc3cc(C)cc(C)c3[n+]2CC)Sc2cc(C)ccc21,active: 15.8 µM,
C[C@@H]1O[C@@H](O[C@H]2[C@H](O)[C@@H](O)[C@H](Oc3c(-c4ccc(O)cc4)oc4cc(O)cc(O)c4c3=O)O[C@@H]2CO)[C@H](O)[C@H](O)[C@H]1O,,inactive: -20.7%
CC1(C)CC(N2CCN(C(c3ccccc3)c3ccccc3)CC2)=CC(=[N+]2CCCCC2)C1,active: 25.1 µM,
CCc1n(CC(O)COCC2CC=CCC2)c2ccccc2[n+]1C (configuration not stated),"inconclusive: 39.8 µM [inhibitor, single point]",
c1ccc(-n2nc3ccccc3n2)cc1,"inconclusive: 100 µM [inhibitor, single point]",

# — PubChem BioAssay AID504339 (National Center for Advancing Translational Sciences (NCATS), 2011)
